Reference: publication PMC12136788
This is one part of the list.

T1: UNK ZnF1-3 (human, UniProt Q9C0B0 31-174)
T1 sequence: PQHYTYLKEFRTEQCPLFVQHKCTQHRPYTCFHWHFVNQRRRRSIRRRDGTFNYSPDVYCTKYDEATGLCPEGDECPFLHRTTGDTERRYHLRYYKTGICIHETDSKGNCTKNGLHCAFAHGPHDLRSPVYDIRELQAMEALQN

B1: chr2:29001751:29001752:+_ENSG00000213639_ENST00000296122|perfect_dup|FALSE|FALSE (ssRNA)
RNA: GGGAGUUCUACAGUCCGACGAUCAGCCAAUAGCAAACAGAUGGUUUCCAAAGACUGCUUUCCUCUGUCCACAUAAUCUCCUAAGAAAAGAUAGUUGGCUUCUGGUGGAAAACCUCCAUAUUCAAAUAAUCUUAGUAAGUCUGUCAACAGAGGAUUGAGCAUCA
B2: chr10:70028019:70028020:-_ENSMUSG00000037747_ENSMUST00000162251|mus_hu|FALSE|FALSE (ssRNA)
RNA: GGGAGUUCUACAGUCCGACGAUCAGCCUUCUCCAACAAUUGUGUUAGAUGAACUUUUGAAUAGUCUGCGGUGCAGAAUUCUAUAAUUUCACUCCAUUCAGACACAACAUAAUCACCAUCAACUUGUUUUGAGGCAGUCUGCACCAACAGAGGAUUGAGCAUCA
B3: chr4:43572504:43572505:-_ENSMUSG00000028465_ENSMUST00000123985|mus_mus|motif|central (ssRNA)
RNA: GGGAGUUCUACAGUCCGACGAUCUCUCUCCAUUAGGUCAGUCGAAGAUGAGUCAAAGGUAUCGUCCCAGGCACAGAGAAUAGCACGGGCAAAGGUUGAGAGGCAGGAGAUCUCGGAGGAAUGCCCAGGAAAGUGAGGAGGCAACAACAGAGGAUUGAGCAUCA
B4: chr8:48798321:48798322:-_ENSMUSG00000038069_ENSMUST00000038738|mus_hu|motif|central (ssRNA)
RNA: GGGAGUUCUACAGUCCGACGAUCCAGUUCAUCUCUUGUUGUAUAGGUUGGAGCAUCUGUCACUUUGAUGCCUUCAGCCAUACGGAGUAUUUUAUCCAUAACUUUUUGAGGGUAUCGGCACCCGAGGAAGACGUGGUUCGCCCACAACAGAGGAUUGAGCAUCA
B5: chr22:19452774:19452775:-_ENSG00000070010_ENST00000399523|hu_hu|hu_hu_hu_mus_False|1_1 (ssRNA)
RNA: GGGAGUUCUACAGUCCGACGAUCCUUCUCAUUGUAGUUGAUAGCAAUCACAUCUCCAGUCGUCAGACAGGCGAAGUUUCUCAAUGCAUUUUCUAAUACCGCUUUAGGGUUGGUAAUAUCCAGGAAGUCUGGGCUCUGAGGUUGCAACAGAGGAUUGAGCAUCA
B6: 13929359_13931220_701_CDS_ENSMUSG00000038365_ENSMUST00000043520|mouse|control|control (ssRNA)
RNA: GGGAGUUCUACAGUCCGACGAUCCAGGGGCAGGUCACUGAGUGUGAGGCCAGUGUUUACCUGCUUUGUCACCUGGAGGUUCUGCAGCUGCUGCUGCCAGCUGAGGACGGUCUCCAGGCGGCAGAUCCAGAUGUUGAUGUUCCCCAACAGAGGAUUGAGCAUCA
B7: chr12:39763582:39763583:-_ENSG00000139116_ENST00000544797|hu_mus|hu_hu_hu_mus_False|68_68 (ssRNA)
RNA: GGGAGUUCUACAGUCCGACGAUCCUCUAGGAACUGGGCAUUCACUUUGAAUUCAGGAGGGGGCAGCCCAUUUUUAAUCGCUGAGGUCUUUUUCUCAUCAAUACUCUUGAACAGGUGUCUAACAGCACGAGAGAUGAUGCCCUGCAACAGAGGAUUGAGCAUCA
B8: 135554746_135554866_2364_CDS_ENSG00000125484_ENST00000372146|human|control|control (ssRNA)
RNA: GGGAGUUCUACAGUCCGACGAUCUUCAUCGUCAGCAUUGCCCAUCCCAGGCGAAUCCACUAGUAAGAUUUUUGAGUCCUCAUGGGUGGGUUUCCACAAGGCUUCUGAAGGGGUUUUCUGCAUUGACUGAUAUAAAAUCCUCAGCAACAGAGGAUUGAGCAUCA
B9: chr12:39756943:39756944:-_ENSG00000139116_ENST00000544797|hu_mus|hu_hu_hu_mus_False|68_78 (ssRNA)
RNA: GGGAGUUCUACAGUCCGACGAUCGGUUUGGCUGUUACCCCCAAGGGAAUCCUGCAAUAGUCUUGUUAGCUUGGAAUCUCUGUAAGGGACAUGGGUGGCUCUCUUGCUCUUGUCCCCCAAGGCGCUGAUUACAUUCCCAAGAGCCAACAGAGGAUUGAGCAUCA
B10: chr5:108714765:108714766:-_ENSG00000198961_ENST00000361557|hu_hu|FALSE|FALSE (ssRNA)
RNA: GGGAGUUCUACAGUCCGACGAUCACAAGCUCCUGGAAUAUACUCUCCCUCAGAGUGAUUAUGAAGAUUUGUACUGCUUCCUAAGGUAUCCCUGCCUUCCUCACUGUGAUGUACUGCAACAAAGGAUUGACUGCUCUCAGUGGUCAACAGAGGAUUGAGCAUCA
B11: chr2:100011259:100011260:+_ENSG00000158417_ENST00000289371|hu_hu|FALSE|FALSE (ssRNA)
RNA: GGGAGUUCUACAGUCCGACGAUCGUAGUCUUGUCUAUAUUUUGUAAAGGCAUCAAAUAAAUGAUAAAUAAUUUCUGCACUAAAAAUUCUAACUCCUAAACUAUCAGCCAUUUCUUGUGCAUCUCGUUCAAUUCUCACAUCGAACAACAGAGGAUUGAGCAUCA
B12: 52694965_52695325_878_CDS_ENSMUSG00000003865_ENSMUST00000003964|mouse|control|control (ssRNA)
RNA: GGGAGUUCUACAGUCCGACGAUCGCAGUACCGGUGAUAGAUCUGCCUCUCUCCUGCUUCCUUGUCUACAUUGAAAUUCUCCAGGUUGUUGUAGAAGUCCACAGCGCCAGCACACAGGUAGCGCCCCAGCAGCGUGGCAUGAGUCAACAGAGGAUUGAGCAUCA
B13: chr14:89307221:89307222:+_ENSG00000165533_ENST00000346301|hu_mus|hu_hu_hu_mus_False|18_68 (ssRNA)
RNA: GGGAGUUCUACAGUCCGACGAUCUCCUGUUUGGUUAGUGCCAGGGAGCUUCAAAGAUGUGCCAGGGCGUGGAACUUGAGCAAUAGCAUUUUCAUCCAGGAUCAUUUCAGCAAUUCCUUCCUGAUCUACAUCAAUUUCAUCUAUCAACAGAGGAUUGAGCAUCA
B14: chr3:148802587:148802588:-_ENSG00000071794_ENST00000310053|hu_mus|hu_hu_hu_mus_False|48_68 (ssRNA)
RNA: GGGAGUUCUACAGUCCGACGAUCUCCAACAACUUGUCCUCUCAUAGUUCCAAAUAAAACCAAAUCUACUUCUUCAUCACUCGUUAGAAAGUCAUCUGGAGGAAUAAUGUCUUGGAAUUCAAAAUGUGGCAAGAAAGUUGAGUACAACAGAGGAUUGAGCAUCA

biological target: T1, UNK ZnF1-3; assay: nsRBNS (natural sequence RNA bind-n-seq); RBNS binding buffer (assumed for nsRBNS): 25 mM Tris pH 7.5, 150 mM KCl, 3 mM MgCl2, 0.01% Triton X-100, 500 ug/ml BSA, 20 U/ml SUPERase-In, 4 C; UNK is unkempt and MSI1 is Musashi-1; names of the RNAs are library labels; protein concentration not given here; high values mean tight binding

Binder | binding signal [enrichment R]
B1 | 1.88
B2 | 1.28
B3 | 2.35
B4 | 0.614
B5 | 0.884
B6 | 0.556
B7 | 1.46
B8 | 0.627
B9 | 0.729
B10 | 2.06
B11 | 1.46
B12 | 0.937
B13 | 1.02
B14 | 1.16
